# Reference: the supplement of paper PMC8728848
# The other results are listed elsewhere or left out.
# B1: CSA (Cytisus scoparius), P29257 (protein)
# chain: SEELSFSFTKFKTDQKNLILQRDALITPTGKLQLTTVENGKPAAYSLGRALYSTPIHIWDKSTGDEASFATFFSFVISDAPNPSTAATDGLAFFLAPADTQPQSAGGYLGLFEKDSSYNSSNQIVAVEFDTYYNSAWDPQTNPHIGIDVNTIKSKKVSSWGFKNGNVATVLITYQPSSKSLVASLVYPSGQTSDKTSYIISANVDLKATVPEWVRIGFSATTGQTDNYIETHDILSWSFKSKLPATKN
# Experiments:
# Assay in all cases: glycan array binding signal (z-score within array); higher = stronger binding
# Settings in all cases: glycan notation: IUPAC condensed, linker removed
# [1] = molecular target: GlcNAc(b1-3)Gal(b1-4)GlcNAc(b1-3)Gal(b1-4)GlcNAc(b1-3)Gal(b1-4)GlcNAc(b1-3)Gal(b1-4)GlcNAc(b1-2)Man(a1-3)[GlcNAc(b1-3)Gal(b1-4)GlcNAc(b1-3)Gal(b1-4)GlcNAc(b1-3)Gal(b1-4)GlcNAc(b1-3)Gal(b1-4)GlcNAc(b1-2)Man(a1-6)]Man(b1-4)GlcNAc(b1-4)[Fuc(a1-6)]GlcNAc
# In short: (§1)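 From the Consortium for Functional Glycomics database, 3228 arrays were curated, keeping only those whose protein sequence was available. Binding is given as a within-array Z-score averaged across arrays sharing a protein sequence and across linkers. Negative Z-scores can be read as non-binding.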
# [2] = molecular target: GlcNAc(b1-3)Gal(b1-4)GlcNAc(b1-3)Gal(b1-4)GlcNAc(b1-3)Gal(b1-4)GlcNAc(b1-3)Gal(b1-4)GlcNAc(b1-2)[GlcNAc(b1-3)Gal(b1-4)GlcNAc(b1-3)Gal(b1-4)GlcNAc(b1-3)Gal(b1-4)GlcNAc(b1-3)Gal(b1-4)GlcNAc(b1-6)]Man(a1-6)[GlcNAc(b1-3)Gal(b1-4)GlcNAc(b1-3)Gal(b1-4)GlcNAc(b1-3)Gal(b1-4)GlcNAc(b1-3)Gal(b1-4)GlcNAc(b1-2)Man(a1-3)]Man(b1-4)GlcNAc(b1-4)[Fuc(a1-6)]GlcNAc
# In short: as §1
# [3] = molecular target: GlcNAc(b1-3)Gal(b1-4)GlcNAc(b1-3)Gal(b1-4)GlcNAc(b1-3)GalNAc
# In short: as §1
# [4] = molecular target: GlcNAc(b1-3)Gal(b1-4)GlcNAc(b1-3)GalNAc
# In short: as §1
# [5] = molecular target: GlcNAc(b1-3)Gal(b1-4)GlcNAc(b1-3)[GlcNAc(b1-3)Gal(b1-4)GlcNAc(b1-3)]GalNAc
# In short: as §1
# [6] = molecular target: GlcNAc(b1-3)Gal(b1-4)GlcNAc(b1-6)[Gal(b1-3)]GalNAc
# In short: as §1
# [7] = molecular target: GlcNAc(b1-3)Gal(b1-4)GlcNAc(b1-6)[GlcNAc(b1-3)Gal(b1-3)]GalNAc
# In short: as §1
# [8] = molecular target: GlcNAc(b1-3)Gal(b1-4)GlcNAc(b1-6)[GlcNAc(b1-3)]Gal(b1-4)GlcNAc
# In short: as §1
# GlcNAc(b1-3)GalNAc = molecular target: GlcNAc(b1-3)GalNAc
# In short: as §1
# GlcNAc(b1-3)Man = molecular target: GlcNAc(b1-3)Man
# In short: as §1
# [9] = molecular target: GlcNAc(b1-3)[GlcNAc(b1-4)][GlcNAc(b1-6)]GlcNAc
# In short: as §1
# [10] = molecular target: GlcNAc(b1-3)[GlcNAc(b1-6)]Gal(b1-4)GlcNAc
# In short: as §1
# [11] = molecular target: GlcNAc(b1-3)[GlcNAc(b1-6)]GalNAc
# In short: as §1
# [12] = molecular target: GlcNAc(b1-3)[GlcNAc(b1-6)]GlcNAc(b1-4)GlcNAc
# In short: as §1
# [13] = molecular target: GlcNAc(b1-4)Gal(b1-4)GlcNAc
# In short: as §1
# GlcNAc(b1-4)GlcNAc = molecular target: GlcNAc(b1-4)GlcNAc
# In short: as §1
# [14] = molecular target: GlcNAc(b1-4)GlcNAc(b1-4)GlcNAc
# In short: as §1
# [15] = molecular target: GlcNAc(b1-4)GlcNAc(b1-4)GlcNAc(b1-4)GlcNAc(b1-4)GlcNAc
# In short: as §1
# [16] = molecular target: GlcNAc(b1-4)GlcNAc(b1-4)GlcNAc(b1-4)GlcNAc(b1-4)GlcNAc(b1-4)GlcNAc
# In short: as §1
# [17] = molecular target: GlcNAc(b1-4)[GlcNAc(b1-6)]GalNAc
# In short: as §1
# [18] = molecular target: GlcNAc(b1-6)Gal(b1-4)GlcNAc
# In short: as §1
# GlcNAc(b1-6)GalNAc = molecular target: GlcNAc(b1-6)GalNAc
# In short: as §1
# [19] = molecular target: GlcNAc6S(b1-3)Gal(b1-4)GlcNAc
# In short: as §1
# Kdn(a2-3)Gal(b1-3)GalNAc = molecular target: Kdn(a2-3)Gal(b1-3)GalNAc
# In short: as §1
# Kdn(a2-3)Gal(b1-3)GlcNAc = molecular target: Kdn(a2-3)Gal(b1-3)GlcNAc
# In short: as §1
# Kdn(a2-3)Gal(b1-4)Glc = molecular target: Kdn(a2-3)Gal(b1-4)Glc
# In short: as §1
# Kdn(a2-3)Gal(b1-4)GlcNAc = molecular target: Kdn(a2-3)Gal(b1-4)GlcNAc
# In short: as §1
# [20] = molecular target: Kdn(a2-3)Gal(b1-4)[Fuc(a1-3)]GlcNAc
# In short: as §1
# Kdn(a2-6)Gal(b1-4)GlcNAc = molecular target: Kdn(a2-6)Gal(b1-4)GlcNAc
# In short: as §1
# [21] = molecular target: Man(a1-2)Man(a1-2)Man(a1-3)Man
# In short: as §1
# [22] = molecular target: Man(a1-2)Man(a1-2)Man(a1-6)[Man(a1-3)]Man
# In short: as §1
# Man(a1-2)Man(a1-3)Man = molecular target: Man(a1-2)Man(a1-3)Man
# In short: as §1
# [23] = molecular target: Man(a1-2)Man(a1-3)[Man(a1-2)Man(a1-6)]Man
# In short: as §1
# [24] = molecular target: Man(a1-2)Man(a1-3)[Man(a1-2)Man(a1-6)]Man(a1-6)[Man(a1-2)Man(a1-2)Man(a1-3)]Man
# In short: as §1
# [25] = molecular target: Man(a1-2)Man(a1-3)[Man(a1-2)Man(a1-6)]Man(a1-6)[Man(a1-2)Man(a1-2)Man(a1-3)]Man(b1-4)GlcNAc(b1-4)GlcNAc
# In short: as §1
# [26] = molecular target: Man(a1-2)Man(a1-3)[Man(a1-2)Man(a1-6)]Man(a1-6)[Man(a1-3)[Man(a1-6)]Man(a1-6)]Man(b1-4)GlcNAc(b1-4)GlcNAc
# In short: as §1
# [27] = molecular target: Man(a1-2)Man(a1-3)[Man(a1-6)]Man(a1-6)[Man(a1-2)Man(a1-3)]Man(b1-4)GlcNAc(b1-4)GlcNAc
# In short: as §1
# [28] = molecular target: Man(a1-2)Man(a1-6)[Man(a1-3)]Man(a1-6)[Man(a1-2)Man(a1-2)Man(a1-3)]Man
# In short: as §1
binder,measurement,setting,value
B1,glycan array binding signal (z-score),[1],-0.14
same,glycan array binding signal (z-score),[2],-0.168
same,glycan array binding signal (z-score),[3],-0.141
same,glycan array binding signal (z-score),[4],-0.288
same,glycan array binding signal (z-score),[5],-0.212
same,glycan array binding signal (z-score),[6],-0.205
same,glycan array binding signal (z-score),[7],-0.218
same,glycan array binding signal (z-score),[8],-0.248
same,glycan array binding signal (z-score),GlcNAc(b1-3)GalNAc,-0.217
same,glycan array binding signal (z-score),GlcNAc(b1-3)Man,-0.189
same,glycan array binding signal (z-score),[9],-0.198
same,glycan array binding signal (z-score),[10],-0.218
same,glycan array binding signal (z-score),[11],-0.159
same,glycan array binding signal (z-score),[12],-0.189
same,glycan array binding signal (z-score),[13],-0.213
same,glycan array binding signal (z-score),GlcNAc(b1-4)GlcNAc,-0.148
same,glycan array binding signal (z-score),[14],-0.198
same,glycan array binding signal (z-score),[15],-0.22
same,glycan array binding signal (z-score),[16],-0.173
same,glycan array binding signal (z-score),[17],-0.198
same,glycan array binding signal (z-score),[18],-0.221
same,glycan array binding signal (z-score),GlcNAc(b1-6)GalNAc,-0.118
same,glycan array binding signal (z-score),[19],-0.128
same,glycan array binding signal (z-score),Kdn(a2-3)Gal(b1-3)GalNAc,-0.123
same,glycan array binding signal (z-score),Kdn(a2-3)Gal(b1-3)GlcNAc,-0.19
same,glycan array binding signal (z-score),Kdn(a2-3)Gal(b1-4)Glc,-0.11
same,glycan array binding signal (z-score),Kdn(a2-3)Gal(b1-4)GlcNAc,-0.145
same,glycan array binding signal (z-score),[20],-0.135
same,glycan array binding signal (z-score),Kdn(a2-6)Gal(b1-4)GlcNAc,-0.107
same,glycan array binding signal (z-score),[21],-0.228
same,glycan array binding signal (z-score),[22],-0.088
same,glycan array binding signal (z-score),Man(a1-2)Man(a1-3)Man,-0.188
same,glycan array binding signal (z-score),[23],-0.234
same,glycan array binding signal (z-score),[24],-0.17
same,glycan array binding signal (z-score),[25],-0.095
same,glycan array binding signal (z-score),[26],-0.183
same,glycan array binding signal (z-score),[27],-0.134
same,glycan array binding signal (z-score),[28],-0.179
